Results as given in PubChem BioAssay AID686979 (National Center for Advancing Translational Sciences (NCATS), 2013).
Where “and” joins values, the source holds several entries; their conditions need not be identical. Identical values can stand only once. In all, about 420,000 compounds went through this assay and about 50,000 (12%) were called active. Inconclusive results, whose numbers are uncertain, are shown with a selection of clear calls. The call rests on the fitted dose curve; in most records, active means well fitted inhibition curve with a large enough effect; inconclusive means small, poorly fitted or top-dose-only effect; inactive means flat fitted curve, though single readings scatter. Where the call is inconclusive, the potency comes from a doubtful curve fit.

Test: qHTS for Inhibitors of human tyrosyl-DNA phosphodiesterase 1 (TDP1): qHTS in cells in presence of CPT; further: nearly all actives have a fitted effect of over 55% in size
Conditions: chicken DT40 Tdp1-/-;hTDP1 cells + 20 nM CPT, ATP luminescence, 48 h; activity change, negative = growth inhibition: at 46.2 µM (top of the series) unless noted
How it was run: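 Chicken DT40 Tdp1-/- cells complemented with human TDP1, 400 cells/well, exposed to compounds plus 20 nM camptothecin for at least 48 h at 37 C; viability read as ATP content by CellTiter-Glo luminescence.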
On the % scale 0 is the no-effect control and ±100 the full control effect; potency means the concentration at half of the fitted maximal effect; tags describe the fitted curve by direction and shape.

SMILES | Potency | activity change, negative = growth inhibition
O=C(c1cccc(N2C(=O)C3CC=CCC3C2=O)c1)N1CCCc2ccccc21 (configuration not stated) | inconclusive: 2.06 µM [inhibitor, full curve] | 
O=C1[C@H]2[C@@H](c3ccc(F)cc3)N3C(=O)N(c4ccc(C(F)(F)F)cc4)C(=O)[C@@]3(Cc3ccccc3)[C@H]2C(=O)N1C1CCCCC1 | inconclusive: 29.1 µM [inhibitor, single point] | 
C=CCN1C(=O)C(CC(=O)O)S/C1=N/N=C/c1ccc(N(CC)CC)cc1 (configuration not stated) | inactive | 
COc1ccc(-n2c(=O)c(-c3cccs3)nc3cnc(OC)nc32)cc1 | inactive | 
COc1ccc(-c2cc(C(=O)Nc3c(F)cc(F)cc3Br)no2)cc1 | inactive | 
CCC(CC)c1nnc(NC(=O)c2ccc(N3CCCC3=O)cc2)s1 |  | inconclusive: -30.6% [inhibitor]
O=[N+]([O-])c1ccc2nc(-c3ccncc3)[nH]c2c1 | inconclusive: 29.1 µM [inhibitor, single point] | 
O=C1c2ccccc2C(=O)C1c1ccnc2ccccc12 | active: 5.8 µM | 
CN(C)c1ccc(/C=N\Nc2ccc([N+](=O)[O-])cc2[N+](=O)[O-])cc1Br | inconclusive: 15.8 µM [inhibitor, partial curve] | 
COc1ccc(S(=O)(=O)N2CCN(C(=O)c3ccc4ccccc4n3)CC2)cc1 | inconclusive: 29.1 µM [inhibitor, single point] | 
CN(CCO)S(=O)(=O)c1ccc2c(c1)C(=O)c1cc(S(=O)(=O)N(C)CCO)ccc1-2 | inactive | 
CN(C(=O)c1cccc(NC(=O)Cc2cccc(NC(=O)C3CCCN(C(=O)c4ccccc4)C3)c2)c1)C1CC1 (configuration not stated) | inactive | 
COCCNc1nc(N)c([N+](=O)[O-])c(NC2CCCCC2)n1 | inconclusive: 29.1 µM [inhibitor, single point] | 
Nc1nc(-c2ccccc2)cc(-c2ccccc2)n1 | active: 16.4 µM | 
CC(/C=N/NC(=O)c1c(Br)cnn1C)=C\c1ccccc1 | inactive | 
CC1CCC(N2CC(=O)N(CCC3=CCCCC3)C(c3ccc(F)cc3)C2=O)CC1 (configuration not stated) | active: 13 µM | 
O=C(CN1CCC(n2nnc3ccccc32)CC1)Nc1ccc2c(c1)CCC2 | inconclusive: 23.1 µM [inhibitor, single point] | 
COc1cccc(Nc2nc(C(N)Cc3ccccc3)cs2)n1 (configuration not stated) | active: 13 µM | 
CC(C)CNC(=O)c1cccc(NC(=O)Cc2ccc(Cl)cc2)c1 | inactive | 
COc1ccc(C(=O)NCc2cc(C)nc3ccccc23)cc1OC | inconclusive: 18.4 µM [inhibitor, single point] | 
Cc1cc(N2CCN(c3ccccc3F)CC2)nc2cc(O)ccc12 | inconclusive: 29.1 µM [inhibitor, single point] | 
Nc1nc(C23CC4CCC(CC(C4)C2)C3)cs1 | inactive | 
Cc1ccc(SCCC(=O)NCc2ccncc2)cc1 | inactive | 
CCCCn1nc(C(=O)N(CC)CC(=O)Nc2c(F)cccc2F)c2ccccc2c1=O | inconclusive: 18.4 µM [inhibitor, partial curve] | 

SMILES | Potency | activity change, negative = growth inhibition
CC(=O)Nc1c(C)nn(-c2ccccc2)c1N1CCC(C(=O)NCc2cccc(Cl)c2)CC1 | inactive | 
COc1cc(Cl)c(NC(=O)CCc2nc3cccnc3n2-c2ccccc2)c(OC)c1 | inconclusive: 29.1 µM [inhibitor, single point] | 
O=C(CCc1nnc2n(Cc3ccc(F)cc3)c(=O)c3ccccc3n12)N1CCN(c2ccccn2)CC1 | inconclusive: 18.4 µM [inhibitor, single point] | 
Cn1c(CO)nc2cc(N)ccc21 | inconclusive: 32.6 µM [inhibitor, partial curve, poor fit] | 
Cc1c(OCC(=O)NCC(O)c2ccccc2)ccc2c(-c3ccccc3)cc(=O)oc12 (configuration not stated) | inconclusive: 29.1 µM [inhibitor, single point] | 
Cc1ccc(/C=C(\C#N)c2nc3ccccc3[nH]2)s1 | inactive | 
CC(C)(C)C(C(=O)NC1CCCC1)N1CCN(c2ncccc2C#N)CC1 (configuration not stated) | active: 16.4 µM | 
CCCCc1nc2cc(C(=O)NCc3cn(C)nc3C)ccc2o1 | inconclusive: 25.9 µM [inhibitor, single point] | 
O=C(Nc1ccc(N2CCN(c3ccc(O)cc3)CC2)cc1)Oc1ccccc1 | inconclusive: 18.4 µM [inhibitor, single point] | 
CC(C)(C)OC(=O)N1CCC(c2c(C(=O)N3CCN(c4ccccc4F)CC3)cnn2-c2ccccc2Cl)CC1 | active: 18.4 µM | 
CCOC(=O)N1CCC(N2C(=O)c3ccccc3C2Nc2ccccc2C)CC1 (configuration not stated) | inconclusive: 29.1 µM [inhibitor, single point] | 
Cc1ccc(NC(=O)CN(C)S(=O)(=O)c2ccc3c(c2)n(C)c(=O)c(=O)n3C)cc1 | inconclusive: 9.2 µM [inhibitor, partial curve] | 
COC(=O)c1c(NC(=O)C(=O)NCCCN2CCOCC2)sc2c1CCCC2 | inactive | 
CCn1c(CSc2nc3ccccc3s2)n[nH]c1=S | inconclusive: 35.5 µM [inhibitor, single point] | 
Cc1ccc(NC(=O)c2cnc(SCC(=O)N3CCCc4ccccc43)n(C)c2=O)cc1 | inconclusive: 16.4 µM [inhibitor, single point] | 
CCOC(=O)c1ccc(NC(=S)N2CCCC2c2ccc(OC)c(OC)c2)cc1 (configuration not stated) | inactive | 
CCOC(=O)c1c(NC(=O)c2noc(C)c2[N+](=O)[O-])sc(C(C)=O)c1C | inconclusive: 11.6 µM [inhibitor, partial curve] | 
C=CCn1c(SCC(=O)N(CC)C2CCS(=O)(=O)C2)nc2scc(-c3ccccc3)c2c1=O (configuration not stated) | inconclusive: 25.9 µM [inhibitor, single point] | 
COCCNC(=S)N(CCc1c(C)[nH]c2ccc(F)cc12)Cc1cccs1 | inconclusive: 29.1 µM [inhibitor, single point] | 
Cc1ccc2c(C)c(C(=O)N(C)C(C)c3ccncn3)oc2c1C (configuration not stated) | inactive | 
O=C(CSc1nc2cc3ccccc3cc2[nH]1)Nc1ccc(F)cc1 | inconclusive: 29.1 µM [inhibitor, single point] and inconclusive: 20.6 µM [inhibitor, single point] | 
O=C(NCCc1nc2ccccc2n1Cc1c(F)cccc1Cl)c1ccco1 | inconclusive: 18.4 µM [inhibitor, single point] | 
CN(C)Cc1csc(NC(=O)Nc2ccccc2Cc2ccccc2)n1 | inconclusive: 29.1 µM [inhibitor, single point] | 
CCc1ccc(-c2cc(C)no2)cc1S(=O)(=O)N1CCN(C(=O)c2ccco2)CC1 | inactive | 

SMILES | Potency | activity change, negative = growth inhibition
Cc1cc(Br)cn2c(Cc3cccc(F)c3)c(-c3ccc(Cl)cc3)nc12 | inconclusive: 25.9 µM [inhibitor, single point] | 
COc1ccc(CCN2CCCn3c2nc2c3c(=O)n(Cc3ccccc3F)c(=O)n2C)cc1OC | inconclusive: 29.1 µM [inhibitor, single point] | 
CC(Cc1cccs1)NC(=S)Nc1ccc(Cl)c(Cl)c1 (configuration not stated) | active: 20.6 µM | 
O=C(Cc1ccc(Cl)cc1)Nc1ccccc1N1CCN(C(=O)c2ccccc2)CC1 | inconclusive: 29.1 µM [inhibitor, single point] | 
COc1ccccc1C1CN(Cc2cnn(C)c2C)Cc2ccccc2O1 (configuration not stated) |  | inactive: -1.5% [at 9.04 µM]
Cc1cc(C)nc(SCC(=O)Nc2nonc2N)n1 | inactive | 
COc1ccc(S(=O)(=O)CCC(=O)N2CCN(c3ccc(C(C)=O)cc3)CC2)cc1 | inconclusive: 23.1 µM [inhibitor, single point] | 
CCc1nc2ccc(C(=O)N(C)CCN(C)C)cn2c1N(CC)C(=O)NCCc1ccccc1 | inactive | 
COc1ccc(OC)c(-c2csc(-c3cccs3)n2)c1 | inactive | 
COc1ccccc1Cc1c(-c2ccco2)nc2c(C)cc(Br)cn12 | active: 2.91 µM | 
CC(=O)NCCNc1nc(-c2ccccc2Cl)nc2ccccc12 | inconclusive: 20.6 µM [inhibitor, single point] | 
CC(C)NC(=O)N1CCCC2(CCN(C(=O)c3cccc(F)c3)CC2)C1 | inactive | 
CC(=O)c1ccc(NC(=O)CSc2nc3nn(-c4ccccc4)c(=O)c-3c3n2CCCCC3)cc1 | active: 25.9 µM | 
Cc1ccc2cc(CCNC(=O)c3ccc(Br)o3)c(=O)[nH]c2c1 | inconclusive: 20.6 µM [inhibitor, single point] | 
Cc1oc2c(C)c3oc(=O)c(CC(=O)N[C@@H](CC(C)C)C(=O)N[C@@H](Cc4ccccc4)C(=O)O)c(C)c3cc2c1C | inactive | 
Cc1onc(-c2ccccc2Cl)c1C(=O)N1CCN(c2nc3ccccc3s2)CC1 | inconclusive: 16.4 µM [inhibitor, single point] | 
COc1ccc(C(=O)CSc2nnc3ccccn23)cc1OC | inactive | 
CC(=O)Nc1ccc(-c2nnc3n(Cc4ccc(C)cc4)c(=O)c4ccccc4n23)cc1 | inactive | 
COc1ccc(CNC(=O)CCc2c(C)c3cc4c(C)c(C)oc4cc3oc2=O)cc1 | inconclusive: 29.1 µM [inhibitor, single point] | 
CCN1CCN(Cc2ccc(NC(=O)c3ccc(C)c(NC(=O)c4cccc5[nH]ccc45)c3)cc2C(F)(F)F)CC1 | active: 11.6 µM | 
Cc1c(C(=O)N2CCN(c3ncccn3)CC2)oc2ccc(Cl)cc12 | inactive | 
COC(=O)c1sccc1NC(=O)Cc1ccc(Br)cc1 | inactive | 
CC(C)Nc1nnc(SCC(=O)N2CCN(C(=O)c3ccco3)CC2)s1 | inactive | 
CCOC(=O)C(C)N1C(=O)S/C(=C/c2cc(C)n(-c3ccccn3)c2C)C1=O (configuration not stated) | inconclusive: 20.6 µM [inhibitor, single point] | 
